In PubChem BioAssay AID887 (National Center for Advancing Translational Sciences (NCATS), 2007):
Several values for one entry are separate records, joined by “and”; a condition that tells them apart may be missing. Identical values can stand only once. In all, about 74,000 compounds went through this assay and about 1,100 (1.5%) were called active. This list was built around the results that the source calls inconclusive (neither active nor inactive); the mix of calls is not that of the screen. The call rests on the fitted dose curve; in most records, active means well fitted inhibition curve with a large enough effect; inconclusive means small, poorly fitted or top-dose-only effect; inactive means no such curve, though single readings can be large or run the other way. A potency beside an inconclusive call is a rough fit, not a confirmed value.

What follows are compounds tested against Polyunsaturated fatty acid lipoxygenase ALOX15 (Homo sapiens) (UniProt P16050) (assay: qHTS Assay for Inhibitors of 15-hLO (15-human lipoxygenase)). Settings: purified 15hLO-1, xylenol orange hydroperoxide absorbance; activity change, negative = inhibition: at 57.1 µM (top of the series) unless noted.
In short: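 Purified human 15hLO-1 (40 nM final) in 25 mM Hepes pH 7.5, 0.01% Triton X-100 was preincubated with compound 15 min at room temperature, then reacted 6 min with 50 uM arachidonic acid; hydroperoxide detected by Fe-XO, 573/405 nm absorbance ratio.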
Further: nearly all actives have a fitted effect of over 55% in size.
On the % scale 0 is the no-effect control and ±100 the full control effect; potency means the concentration at half of the fitted maximal effect; tags describe the fitted curve by direction and shape.

Chain of UniProt P16050 (P16050 whole entry, looked up): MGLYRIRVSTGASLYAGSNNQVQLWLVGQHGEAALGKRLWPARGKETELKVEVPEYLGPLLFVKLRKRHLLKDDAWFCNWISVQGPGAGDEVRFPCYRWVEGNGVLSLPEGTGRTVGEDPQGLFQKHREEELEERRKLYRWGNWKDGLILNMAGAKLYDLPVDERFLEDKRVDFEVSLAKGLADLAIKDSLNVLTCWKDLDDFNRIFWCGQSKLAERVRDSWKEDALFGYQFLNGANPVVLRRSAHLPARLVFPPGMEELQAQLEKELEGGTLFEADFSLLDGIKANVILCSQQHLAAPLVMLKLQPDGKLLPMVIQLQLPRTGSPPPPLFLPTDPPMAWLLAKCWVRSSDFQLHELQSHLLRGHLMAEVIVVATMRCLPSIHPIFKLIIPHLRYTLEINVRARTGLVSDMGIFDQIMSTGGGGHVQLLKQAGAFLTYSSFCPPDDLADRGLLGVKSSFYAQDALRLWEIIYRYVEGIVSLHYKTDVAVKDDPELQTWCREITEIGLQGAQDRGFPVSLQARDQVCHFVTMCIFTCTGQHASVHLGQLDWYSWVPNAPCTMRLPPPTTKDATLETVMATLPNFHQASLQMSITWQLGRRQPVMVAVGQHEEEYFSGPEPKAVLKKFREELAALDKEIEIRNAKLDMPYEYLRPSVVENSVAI

| Structure (SMILES) | Potency | activity change, negative = inhibition |
| --- | --- | --- |
| Clc1ccc(OCc2nn3c(C4CCCCC4)nnc3s2)cc1 | inconclusive: 39.8 µM [inhibitor, single point] | – |
| CSC1=N/C(=C\c2ccc(C)o2)C(=O)S1 | inconclusive: 25.1 µM [inhibitor, partial curve] | – |
| C=CCN1C(=O)C(O)(CC(=O)c2ccc(OC)cc2OC)c2cc(Br)ccc21 (centres undefined) | inconclusive: 15.8 µM [inhibitor, partial curve] | – |
| CCOc1cc(C2CC(=O)NC3=C2C(=O)C(C(=O)OC)C(C)C3)cc(Cl)c1O (centres undefined) | inconclusive: 31.6 µM [inhibitor, single point] | – |
| COC(=O)Nc1ccc2[nH]cc(CCNC(C)=O)c2c1 | – | inactive: -9.01% [at 25.6 µM] |
| CCC(c1nnnn1C1CCCC1)N1CCN(c2ccccc2)CC1 (centres undefined) | inconclusive: 0.398 µM [inhibitor, partial curve, poor fit] | – |
| COc1ccc(CN2CCN(c3cccc(C)c3C)CC2)cc1OC | inconclusive: 39.8 µM [inhibitor, single point] | – |
| CCCCNC(=O)CN1C(=O)C(CC)Oc2ccc(Cl)cc21 (centres undefined) | – | inactive: 3.64% |
| Cc1cccc2cc(C#N)c(NCCNS(=O)(=O)c3ccc4c(c3)OCCO4)nc12 | inconclusive: 20 µM [inhibitor, single point] | – |
| COc1ccc(O)c(/C=c2/sc3nc4cc(C)c(C)cc4n3c2=O)c1 | inconclusive: 7.94 µM [inhibitor, partial curve] | – |
| O=C(Nc1ccc(-n2nncc2-c2ccco2)cc1)c1cccc(F)c1 | – | inactive: -10.5% |
| O=c1cc(-c2ccccc2)oc2cccc(O)c12 | inconclusive: 20 µM [inhibitor, single point] | – |
| COCc1cc(C)nc(SCC(=O)Nc2cccc3cccnc23)c1C#N | – | inactive: 8.7% |
| Nc1ccc(O)cc1C(=O)OCC(=O)C12CC3CC(CC(C3)C1)C2 | active: 12.6 µM | – |
| O=C(OCC(=O)N1CCN(C(=O)c2ccco2)CC1)c1cc(-c2ccccc2)nc2ccccc12 | – | inactive: -14.8% |
| Nc1c(NCCN2CCOCC2)c2ccccc2oc1=O | active: 1.58 µM | – |
| CN(C)c1ccc(/C(=N\O)C(F)(F)F)cc1 | inconclusive: 3.16 µM [inhibitor, single point] | – |
| CC(C)=CCc1c(O)cc(O)c2c1O[C@H](c1ccccc1)CC2=O | – | inactive: 1.61% [at 25.6 µM] |
| O=c1cc(CNC2CCCCC2)c2ccccc2[nH]1 | inconclusive: 12.6 µM [inhibitor, partial curve] | – |
| NN(CC(=O)O)CC(=O)O | – | inactive: 5.88% [at 11.4 µM] |
| COc1ccc2c(c1)c(C(O)CN1CCN(Cc3ccc4c(c3)OCO4)CC1)c(C)n2C (centres undefined) | inconclusive: 20 µM [inhibitor, single point] | – |
| O=C1NCCCc2c1oc1ccc(O)cc21 | – | inactive: 1.95% |
| COc1ccc(OC)c(Nc2cc(-c3ccccc3)nc(N)n2)c1 | inconclusive: 25.1 µM [inhibitor, single point] | – |
| Cc1cc(N)c2ccccc2[n+]1CCCCCCCCCC[n+]1c(C)cc(N)c2ccccc21 | inconclusive: 39.8 µM [inhibitor, single point] and inconclusive: 20 µM [inhibitor, single point] | – |
| COc1ccc(Oc2ncc3nc(-c4cccc(C#N)c4)c(=O)n(Cc4cccc(OC)c4)c3n2)cc1 | – | inactive: -2.79% |

| Structure (SMILES) | Potency | activity change, negative = inhibition |
| --- | --- | --- |
| COc1cc2c(cc1OC)C(Cc1ccc(O)cc1)N(C)CC2 (centres undefined) | inconclusive: 25.1 µM [inhibitor, single point] | – |
| O=C(CCCSc1nc2ccccc2[nH]1)NC1=NCCS1 | inconclusive: 31.6 µM [inhibitor, partial curve] | – |
| COc1ccc2[nH]c(=O)c(CNC3CCCCC3)cc2c1 | inconclusive: 3.16 µM [inhibitor, full curve] | – |
| CC(C)CN1CC[C@@]2(CCCN(S(=O)(=O)c3ccccc3)C2)C1 | – | inactive: -9.53% |
| CC1CCc2nn(CC(=O)NCCCN3CCCCC3)cc2C1 (centres undefined) | – | inactive: 3.18% |
| O=C(O)Cc1cccc2c(=O)cc(-c3ccccc3)oc12 | – | inactive: 2.23% [at 11.4 µM] |
| Cc1cc(Nc2ccc(C(C)C)cc2)n2ncnc2n1 | – | inactive: 6.02% |
| NC(=O)CSCc1ccc(Br)cc1 | – | inactive: 13.1% |
| CCCCN(CCCNc1ncnc2nc[nH]c12)c1ccccc1 | inconclusive: 3.98 µM [inhibitor, partial curve] | – |
| Cc1cc2cc(C(c3nnnn3Cc3ccco3)N3CCc4ccccc43)c(=O)[nH]c2cc1C (centres undefined) | inconclusive: 25.1 µM [inhibitor, partial curve] | – |
| COc1ccc(C(=O)Oc2c(CN3CCOCC3)cc(Cl)c3cccnc23)cc1 | – | inactive: -2.58% |
| Cc1noc(NS(=O)(=O)c2ccc(NC(=O)CSc3nc4ccccc4s3)cc2)c1C | inconclusive: 31.6 µM [inhibitor, single point] | – |
| COc1ccccc1CC1(C)NC(=O)N(CC(=O)Nc2cc(C)on2)C1=O (centres undefined) | inconclusive: 20 µM [inhibitor, partial curve, poor fit] | – |
| COc1ccc(NC(=O)C2CCCNC2)cc1OCC(C)C (centres undefined) | inconclusive: 7.94 µM [inhibitor, full curve] | – |
| COC(=O)c1c(NC(=O)CN2CCN(Cc3ccc4c(c3)OCO4)CC2)sc(C)c1C | inconclusive: 20 µM [inhibitor, single point] | – |
| Nc1nc2sc3c(c2c(=O)s1)CCCC3 | active: 0.794 µM | – |
| Cc1cc(C(=O)CSc2nnc(-c3ccco3)o2)c(C)n1Cc1ccco1 | active: 25.1 µM | – |
| Cc1cn([C@H]2C[C@H](N=[N+]=[N-])[C@H](CO)O2)c(=O)[nH]c1=O | inactive | – |
| Cn1c(=O)c2c(nc(N/N=C\c3ccccc3C(=O)O)n2C)n(C)c1=O | – | inactive: 13.8% [at 11.4 µM] |
| COCCn1nnnc1C(c1cc2cc(C)ccc2[nH]c1=O)N1CCCCCC1 (centres undefined) | inconclusive: 12.6 µM [inhibitor, partial curve] | – |
| Cc1nnc(Sc2cc(C(=O)NCc3ccco3)c3ccccc3n2)s1 | inconclusive: 31.6 µM [inhibitor, partial curve] | – |
| CC(=O)NCCNc1cc(-c2ccccc2C)ncn1 | – | inactive: 6.67% |
| Cc1csc(NC(=O)CCc2nc3ccccc3s2)n1 | inconclusive: 39.8 µM [inhibitor, single point] | – |
| CN(Cc1ccccc1)Cc1nc2c(c(=O)n(C)c(=O)n2C)n1CCc1ccccc1 | – | inactive: -5.38% |
| O=C(NCCC1=CCCCC1)c1ccc(Br)o1 | inconclusive: 31.6 µM [inhibitor, single point] | – |

| Structure (SMILES) | Potency | activity change, negative = inhibition |
| --- | --- | --- |
| CCN(C(=O)c1coc(=O)c(Br)c1)c1ccc2c(c1)OCO2 | inconclusive: 25.1 µM [inhibitor, single point] | – |
| Cc1noc(C)c1C(=O)NCc1ccco1 | inconclusive: 12.6 µM [inhibitor, partial curve] | – |
| CCCC(c1nnnn1CC(=O)OCC)N(Cc1cc2c(C)cc(C)cc2[nH]c1=O)C1CCCC1 (centres undefined) | inconclusive: 12.6 µM [inhibitor, partial curve] | – |
| NS(=O)(=O)c1cccc2c1c([N+](=O)[O-])cc1[nH]c(=O)c(=O)[nH]c12 | inconclusive: 7.94 µM [inhibitor, full curve, poor fit] | – |
| OC1C=C2CCN3Cc4cc5c(cc4C(C1O)C23)OCO5 (centres undefined) | inconclusive: 31.6 µM [inhibitor, single point] | – |
| Cc1nc(N)sc1-c1csc(Nc2ccccc2)n1 | inconclusive: 20 µM [inhibitor, single point] | – |
| CCNc1ncc2nc(-c3cc(F)cc(F)c3)c(=O)n(C3CC3)c2n1 | – | inactive: -5.56% |
| CC1(C)CC2C1CCC1(C)OC2(C)CCC1O (centres undefined) | – | inactive: 0.746% |
| Cc1ccc(Nc2nc(CSc3nnnn3-c3ccccc3)cs2)cc1 | inconclusive: 25.1 µM [inhibitor, partial curve] | – |
| CN(C)c1ccc(-c2cncnc2Nc2ccccc2)cc1 | inconclusive: 31.6 µM [inhibitor, single point] | – |
| COCCNc1cc(-c2c(C)noc2C)ncn1 | inconclusive: 39.8 µM [inhibitor, single point] | – |
| CN(Cc1ccco1)c1ncnc2ccc(-c3ccoc3)cc12 | – | inactive: 2.02% |
| CC(=O)N(c1ccc2oc(=O)sc2c1)S(=O)(=O)c1cccs1 | active: 10 µM | – |
| Cc1ccc2[nH]c(=O)c(CN(CCCN3CCOCC3)Cc3nnnn3C3CCCC3)cc2c1 | inconclusive: 6.31 µM [inhibitor, partial curve] | – |
| COc1c(N2CCNC(C)C2)c(F)cc2c(=O)c(C(=O)O)cn(C3CC3)c12 (centres undefined) | inconclusive: 20 µM [inhibitor, single point] | – |
| COc1ccc(CCN2C(=O)c3[nH]nc(-c4ccccc4O)c3C2c2ccc(C)cc2)cc1OC (centres undefined) | inconclusive: 31.6 µM [inhibitor, single point] | – |
| COc1ccc(Br)cc1/C=c1\sc2nc(-c3ccco3)nn2c1=O | inconclusive: 15.8 µM [inhibitor, partial curve] | – |
| CCOC(=O)c1[nH]c(CSc2nnnn2-c2ccccc2C)c(C(=O)OCC)c1C | – | inactive: -11.3% |
| N#Cc1sc2nc(-c3ccccc3)cc(-c3ccco3)c2c1N | active: 3.98 µM | – |
| Cc1ncsc1CCSc1n[nH]c(=O)n1-c1ccccc1 | inconclusive: 39.8 µM [inhibitor, single point] | – |
| Cc1ccccc1C(=O)Nc1ccc(Cl)cn1 | inconclusive: 6.31 µM [inhibitor, single point] | – |
| O=c1c2ccccc2c2ccccc2c(=O)n1-c1cc2c3ccccc3ccc2c2ccccc12 | – | inactive: 14.5% [at 11.4 µM] |
| CCC1C(=O)n2nc(-c3ccccc3)cc2N=C1C (centres undefined) | inconclusive: 0.0079 µM [inhibitor, full curve, poor fit] | – |
| COc1cccc(CC(NC(C)=O)C(=O)NC2CCN(c3nc(C)cc(C)c3C#N)CC2)c1OC (centres undefined) | – | inactive: -1.88% |
